Consider three molecules from PubChem BioAssay (NCATS).

SMILES strings stand for the structures. Inconclusive results are not listed. Unless noted, calls come from the whole dose curve; as a rule, active = well fitted inhibition curve with a large enough effect; inconclusive = small, poorly fitted or top-dose-only effect; inactive = no such curve, though single readings can be large or run the other way. More than one record can exist for a structure, and the calls need not agree. Some entries of the source have several records that differ or are many. They are shown here; other results are not. The source may hold further records. Results that share an entry are repeated measurements (runs, samples, wells, individuals or studies). A tag in brackets gives the origin of a value. A, B and so on number the origins entry by entry.

Assay [1] addresses Estrogen receptor (Homo sapiens) (UniProt P03372). The experiment in a line: qHTS assay for small molecule agonists of estrogen receptor alpha signaling (AID 588514; calls by dose curve; note: nearly all actives have a fitted effect of over 70% in size). The method in brief:
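Fluorescence from CCF4 cleavage reports ER-alpha-driven beta-lactamase expression in HEK 293 cells treated 18 hrs at 37 C. Data normalized to 17-beta-estradiol (20 nM) and DMSO, fitted to Hill equation.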
In general terms: In qHTS, concentration-response curves come from the screen itself.

The target of assay [2] is Rap guanine nucleotide exchange factor 4 (Homo sapiens) (UniProt Q8WZA2). The assay is described as follows: Confirmatory qHTS for antagonist of cAMP-regulated guanine nucleotide exchange factor 4 (EPAC2) (AID 1645885). Note: nearly all actives have a fitted effect of over 25% in size.
Potency is the fitted concentration of half-maximal effect.

Chain of UniProt P03372 (P03372 whole entry, looked up): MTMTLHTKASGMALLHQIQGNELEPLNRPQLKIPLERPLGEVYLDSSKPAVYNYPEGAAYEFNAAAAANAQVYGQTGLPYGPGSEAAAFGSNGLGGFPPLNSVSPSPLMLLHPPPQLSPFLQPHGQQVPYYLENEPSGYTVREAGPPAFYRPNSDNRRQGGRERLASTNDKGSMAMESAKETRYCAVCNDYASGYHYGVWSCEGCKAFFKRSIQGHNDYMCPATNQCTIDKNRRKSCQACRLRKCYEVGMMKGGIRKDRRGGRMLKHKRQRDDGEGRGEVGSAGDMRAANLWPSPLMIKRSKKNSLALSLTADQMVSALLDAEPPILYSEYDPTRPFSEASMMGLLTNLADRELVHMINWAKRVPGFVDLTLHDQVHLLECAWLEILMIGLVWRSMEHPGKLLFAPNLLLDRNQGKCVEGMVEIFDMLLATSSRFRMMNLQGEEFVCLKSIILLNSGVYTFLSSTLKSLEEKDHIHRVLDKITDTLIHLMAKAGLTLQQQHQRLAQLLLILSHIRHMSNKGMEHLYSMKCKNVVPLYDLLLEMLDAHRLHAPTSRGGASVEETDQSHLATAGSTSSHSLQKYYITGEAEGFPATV
Chain of UniProt Q8WZA2 (Q8WZA2 whole entry, looked up): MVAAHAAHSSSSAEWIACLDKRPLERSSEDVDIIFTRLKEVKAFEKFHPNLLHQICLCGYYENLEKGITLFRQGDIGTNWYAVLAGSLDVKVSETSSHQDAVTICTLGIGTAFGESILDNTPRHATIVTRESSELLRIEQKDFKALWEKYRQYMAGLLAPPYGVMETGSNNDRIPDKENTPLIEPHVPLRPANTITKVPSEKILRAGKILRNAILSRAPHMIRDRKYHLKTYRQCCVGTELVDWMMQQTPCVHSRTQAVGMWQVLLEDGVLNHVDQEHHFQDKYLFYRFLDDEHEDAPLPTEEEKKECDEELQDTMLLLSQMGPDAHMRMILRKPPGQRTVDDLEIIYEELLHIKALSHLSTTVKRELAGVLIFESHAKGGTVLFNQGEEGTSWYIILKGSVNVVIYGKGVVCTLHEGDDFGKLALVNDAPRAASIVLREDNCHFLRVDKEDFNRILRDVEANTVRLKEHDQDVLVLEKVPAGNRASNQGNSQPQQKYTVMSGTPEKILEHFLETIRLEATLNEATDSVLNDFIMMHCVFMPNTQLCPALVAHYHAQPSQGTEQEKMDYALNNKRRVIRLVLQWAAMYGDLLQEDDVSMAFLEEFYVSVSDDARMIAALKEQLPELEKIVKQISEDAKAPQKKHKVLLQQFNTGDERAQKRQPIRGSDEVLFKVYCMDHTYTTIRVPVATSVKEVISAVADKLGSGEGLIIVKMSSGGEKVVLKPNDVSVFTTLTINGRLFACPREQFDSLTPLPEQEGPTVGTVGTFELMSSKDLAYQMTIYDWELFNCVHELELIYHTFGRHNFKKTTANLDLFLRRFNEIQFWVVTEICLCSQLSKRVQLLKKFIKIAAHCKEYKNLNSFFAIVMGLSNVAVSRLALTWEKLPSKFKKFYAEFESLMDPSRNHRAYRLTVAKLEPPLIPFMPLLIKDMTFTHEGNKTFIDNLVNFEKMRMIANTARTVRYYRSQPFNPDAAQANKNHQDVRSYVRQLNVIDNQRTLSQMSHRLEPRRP

Take `Nc1ccc(N=Nc2ccccc2)c(N)n1`: the Potency result in assay [1] was “inactive [sample A] and active: 3.16 µM [sample B]”.

For `OB(O)O`, in assay [1], the Potency result was “active: 39.8 µM [sample A] and inactive [sample B]”. `Oc1ccc(/C=C/c2cc(O)cc(O)c2)cc1`: in assay [2], the Potency entry was “inactive and active: 39.3 µM, 55.5 µM, 17.5 µM [separate samples]”.
